# Results: the supplement of paper PMC12217912
# The other results are listed elsewhere or left out. The full chains were built here from the parent and the listed change. Inactive controls read about 0.05.
# B1: TEV protease; numbered along this chain (parent)
# chain: MGESLFKGPRDYNPISSSICHLTNESDGHTTSLYGIGFGPFIITNKHLFRRNNGTLVVQSLHGVFKVKDTTTLQQHLVDGRDMIIIRMPKDFPPFPQKLKFREPQREERICLVTTNFQTKSMSSMVSDTSCTFPSGDGIFWKHWIQTKDGQCGSPLVSTRDGFIVGIHSASNFTNTNNYFTSVPKNFMELLTNQEAQQWVSGWRLNADSVLWGGHKVFMVKPEEPFQPVKEATQL
# Variants of: B1
# Assay: raw area under fraction-flipped curve 0-4 h after induction (AUC4h, not background-subtracted), DNA-recorder readout of cleavage of the substrate (dimensionless); higher = more cleavage of the substrate by the protease variant
# Settings: temperature: 34 °C; time window: 0-4 h after rhamnose induction
# 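Further: Bxb1 expression induced with 0.2% (w/v) L-rhamnose at OD600 near 0.5, cultures sampled hourly, flipped fraction per protease–substrate barcode pair counted by paired-end Illumina sequencing.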
Variant,area with substrate HNLYFQS,area with substrate INLYFQS,area with substrate KNLYFQS,area with substrate MNLYFQS,area with substrate NNLYFQS,area with substrate SNLYFQS,area with substrate VNLYFQS,area with substrate WNLYFQS,area with substrate YNLYFQS,area with substrate QNLYFQS
I110R,0.0575,0.0437,0.0546,0.0155,0.0419,0.0504,0.0577,0.0417,0.0514,–
P89A,0.0429,0.0573,0.0629,–,–,–,–,0.057,–,0.0528
P89V,0.0544,–,–,0.0514,–,–,–,0.0516,0.0739,–
S154I,0.0744,–,–,–,–,0.0895,–,0.0667,–,–
G80L,0.0568,–,–,–,–,–,0.0527,–,0.0729,–
H215K,0.0555,0.0582,0.0627,0.039,–,0.0616,–,0.0553,0.0531,–
T159V,0.0719,0.0793,–,–,0.0596,0.0629,–,–,–,–
N172R,0.0598,0.0706,–,–,–,–,–,0.0771,0.0527,–
F65Q,0.061,0.0683,–,–,–,–,–,0.0565,0.0513,–
L190N,0.0583,–,–,0.029,–,0.069,–,–,0.0683,–
L190P,0.0672,–,0.0649,0.0648,–,0.0612,–,0.0484,0.0391,–
T115Q,0.0665,0.0483,0.0603,0.0762,0.0507,0.0723,0.0679,0.0542,0.0466,–
T115K,0.061,–,–,–,–,–,0.0632,0.075,0.0486,–
T181V,0.055,0.0647,0.0693,–,0.0646,–,–,0.0685,0.0629,–
T181H,0.0639,0.0432,–,0.0604,–,–,0.066,–,–,–
S171I,0.0595,–,–,0.0481,0.0487,–,–,0.0401,–,–
S171K,0.0606,–,–,–,–,0.0786,–,–,–,–
N206L,0.066,–,–,–,–,–,–,–,–,–
K100D,0.0734,–,0.067,–,–,0.0738,–,0.0522,–,–
F173T,0.0522,0.066,0.0406,0.0684,0.059,–,0.0572,0.0652,–,0.0644
V113Y,0.0707,0.0762,0.0431,–,–,–,0.0631,0.0442,0.0527,0.0679
K185A,0.0691,–,–,–,0.0659,0.0679,–,0.0647,–,–
K185V,0.0685,0.0748,–,0.0579,–,–,0.0711,0.0594,–,–
D149P,0.0628,–,–,0.0451,–,–,–,0.0639,–,–
E103I,0.0632,0.0644,0.0418,0.0615,–,–,–,0.0606,0.0327,–

Variant,area with substrate HNLYFQS,area with substrate INLYFQS,area with substrate KNLYFQS,area with substrate MNLYFQS,area with substrate NNLYFQS,area with substrate SNLYFQS,area with substrate VNLYFQS,area with substrate WNLYFQS,area with substrate YNLYFQS,area with substrate QNLYFQS
K66W,0.0594,–,0.0691,–,0.058,0.0482,–,0.0672,0.0636,0.0476
K66E,0.0374,0.0685,0.0451,0.0944,–,0.0628,–,0.087,0.0648,–
P93K,0.0653,–,–,–,–,–,–,–,–,–
S182F,0.0396,0.0486,–,0.0499,–,0.0574,–,0.0467,–,–
S182C,0.0551,–,–,–,–,–,–,0.0532,–,–
G28Y,0.0628,0.0608,–,–,–,0.0764,–,0.0449,0.0668,0.0622
R81V,0.0595,–,0.0572,–,–,–,–,0.0685,–,0.0538
T114N,0.0864,–,–,0.0997,0.0835,0.0678,0.0746,0.0744,–,–
Q118W,0.0564,–,–,–,0.0689,0.0671,–,0.0662,0.0668,–
Q118L,0.0617,–,–,–,–,–,–,–,–,–
T129K,0.0681,–,0.065,–,0.0621,–,–,0.0542,–,–
D161G,0.0554,0.0547,0.0779,–,–,–,0.0616,0.0548,0.0447,–
V57I,0.0702,–,–,0.0521,–,–,–,–,–,–
N178Y,0.0899,0.0975,0.0959,0.082,–,–,–,–,0.0799,–
N178R,0.0614,0.0807,–,–,–,0.0761,0.0567,0.0532,0.0734,–
R204D,0.0594,0.0642,–,0.0856,0.0732,0.0477,0.0476,0.0597,0.0559,–
V229R,0.0966,–,–,–,0.0576,0.0585,0.062,–,–,–
T119A,0.0676,–,0.0599,0.0863,0.0731,0.0637,0.0599,0.0563,0.0365,–
N193C,0.0639,–,–,–,–,–,–,0.065,–,–
N193Q,0.0851,–,–,–,–,–,0.0619,–,–,–
K142N,0.0737,0.056,0.0686,0.0745,–,–,–,0.0576,–,0.0832
N177M,0.069,–,0.105,–,–,–,–,–,0.0601,–
N177G,0.0687,0.0542,0.0689,–,0.0546,–,0.0699,–,0.0501,–
R87Q,0.0638,–,–,0.0725,–,–,–,0.0489,0.0612,–

# Same assay, conditions: temperature: 34 °C; time window: 0-4 h after rhamnose induction
Variant,area with substrate TNLYFQS,area with substrate LNLYFQS,area with substrate PNLYFQS,area with substrate RNLYFQS
P89V,0.0384,–,–,–
S154I,–,0.0664,0.0689,–
G80L,–,–,0.0631,–
H215K,0.0712,0.0625,–,–
T159V,0.0696,–,–,–
N172R,0.0617,–,0.063,–
F65Q,–,–,0.0603,–
L190N,0.0628,–,–,–
L190P,–,0.0562,0.0611,–
T115Q,0.0678,0.0609,0.0839,–
T115K,0.0662,0.0675,0.064,0.0672
T181V,0.0578,0.0695,–,–
T181H,0.0529,–,0.059,–
S171I,–,–,0.065,–
K100D,0.0612,–,–,–
F173T,0.0575,–,0.0616,–
V113Y,0.0462,–,0.0705,–
K185A,–,0.0759,–,–
K185V,–,0.072,–,–
D149P,0.0716,0.0892,–,–
E103I,0.0659,0.0696,0.0622,–
K66W,0.076,0.0548,0.0709,–

Variant,area with substrate TNLYFQS,area with substrate LNLYFQS,area with substrate PNLYFQS,area with substrate RNLYFQS
K66E,0.0513,–,–,–
S182F,0.0431,0.0669,0.0565,–
S182C,0.0668,–,0.0646,–
G28Y,0.0742,0.0704,0.0629,–
R81V,0.0613,–,–,–
T114N,–,0.0659,–,–
Q118W,0.0592,0.0638,–,–
Q118L,–,–,0.0671,–
T129K,–,0.0583,0.0588,–
D161G,0.0758,0.0627,0.0755,–
V57I,0.0751,0.0542,–,–
N178Y,0.0791,–,–,–
N178R,0.0585,–,0.0745,–
R204D,0.054,0.057,0.0618,–
V229R,0.0655,0.0713,0.0674,0.053
T119A,–,0.0745,–,0.0487
N193C,0.0747,–,–,–
N193Q,–,0.0585,–,–
K142N,–,0.0809,0.0643,0.0732
N177M,–,0.0752,0.0539,–
N177G,0.0595,–,–,–
